This is an account of results in article PMC12259254.

By UniProt entry, the sequences of proteins in these tests, tags left out. Residues count along the entry.
UniProt P20700: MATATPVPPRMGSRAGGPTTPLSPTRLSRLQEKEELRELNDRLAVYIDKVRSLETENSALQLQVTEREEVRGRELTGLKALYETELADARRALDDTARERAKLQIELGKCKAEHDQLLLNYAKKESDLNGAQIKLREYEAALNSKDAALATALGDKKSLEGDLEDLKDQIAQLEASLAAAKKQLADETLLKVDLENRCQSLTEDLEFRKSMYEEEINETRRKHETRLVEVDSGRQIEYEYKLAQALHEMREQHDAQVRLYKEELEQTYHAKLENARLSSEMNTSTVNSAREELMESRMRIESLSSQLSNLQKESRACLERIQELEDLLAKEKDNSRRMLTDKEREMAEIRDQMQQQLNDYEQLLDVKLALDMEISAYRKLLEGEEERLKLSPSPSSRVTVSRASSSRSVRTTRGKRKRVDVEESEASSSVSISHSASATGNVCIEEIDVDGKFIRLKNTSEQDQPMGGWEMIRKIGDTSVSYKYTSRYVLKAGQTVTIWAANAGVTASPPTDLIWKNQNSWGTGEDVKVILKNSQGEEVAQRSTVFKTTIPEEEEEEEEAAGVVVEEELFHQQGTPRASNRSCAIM
UniProt P02545, residues 1-646: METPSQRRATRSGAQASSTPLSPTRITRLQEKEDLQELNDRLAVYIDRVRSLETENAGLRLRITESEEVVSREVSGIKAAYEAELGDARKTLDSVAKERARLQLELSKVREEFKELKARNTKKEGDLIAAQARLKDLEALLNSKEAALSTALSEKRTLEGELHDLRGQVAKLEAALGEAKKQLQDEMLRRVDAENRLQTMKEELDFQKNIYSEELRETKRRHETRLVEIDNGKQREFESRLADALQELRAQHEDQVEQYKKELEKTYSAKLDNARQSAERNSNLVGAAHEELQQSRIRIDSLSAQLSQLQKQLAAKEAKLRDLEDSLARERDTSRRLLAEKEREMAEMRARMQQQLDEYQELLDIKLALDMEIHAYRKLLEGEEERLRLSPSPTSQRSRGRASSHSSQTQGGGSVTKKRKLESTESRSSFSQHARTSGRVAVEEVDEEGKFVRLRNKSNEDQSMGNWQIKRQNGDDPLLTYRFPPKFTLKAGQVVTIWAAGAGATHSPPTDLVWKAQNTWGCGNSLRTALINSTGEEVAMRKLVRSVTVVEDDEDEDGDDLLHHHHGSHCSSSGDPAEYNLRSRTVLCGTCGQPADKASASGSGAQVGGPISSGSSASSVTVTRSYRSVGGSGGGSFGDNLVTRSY
UniProt O43791: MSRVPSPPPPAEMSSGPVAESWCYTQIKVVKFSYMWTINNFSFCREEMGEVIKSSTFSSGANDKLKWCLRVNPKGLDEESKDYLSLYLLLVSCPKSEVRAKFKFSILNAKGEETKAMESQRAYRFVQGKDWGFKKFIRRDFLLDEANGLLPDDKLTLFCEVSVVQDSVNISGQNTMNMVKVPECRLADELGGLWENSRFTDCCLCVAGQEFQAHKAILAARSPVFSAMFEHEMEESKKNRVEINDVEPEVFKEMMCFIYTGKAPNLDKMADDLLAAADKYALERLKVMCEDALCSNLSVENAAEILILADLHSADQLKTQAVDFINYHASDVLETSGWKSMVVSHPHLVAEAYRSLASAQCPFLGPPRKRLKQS
UniProt Q9H7D7: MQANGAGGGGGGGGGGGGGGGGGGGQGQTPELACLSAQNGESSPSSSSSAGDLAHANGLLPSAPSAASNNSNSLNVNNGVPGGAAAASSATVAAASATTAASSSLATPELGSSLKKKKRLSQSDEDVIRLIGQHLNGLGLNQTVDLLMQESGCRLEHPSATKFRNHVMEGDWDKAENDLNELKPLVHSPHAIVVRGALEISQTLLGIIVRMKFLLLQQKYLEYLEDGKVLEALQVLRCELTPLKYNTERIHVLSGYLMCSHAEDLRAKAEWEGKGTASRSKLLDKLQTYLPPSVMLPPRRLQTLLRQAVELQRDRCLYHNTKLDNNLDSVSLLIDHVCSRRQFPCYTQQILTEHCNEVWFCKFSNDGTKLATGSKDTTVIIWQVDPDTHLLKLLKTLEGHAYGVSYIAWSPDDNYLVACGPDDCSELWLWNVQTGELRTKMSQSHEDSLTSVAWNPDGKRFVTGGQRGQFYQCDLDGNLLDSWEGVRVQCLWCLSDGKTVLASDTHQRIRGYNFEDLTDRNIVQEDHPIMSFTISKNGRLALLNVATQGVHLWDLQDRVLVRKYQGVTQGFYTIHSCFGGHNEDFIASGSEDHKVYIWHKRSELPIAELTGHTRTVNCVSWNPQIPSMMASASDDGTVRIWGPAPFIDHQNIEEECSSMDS

Residue numbers refer to the chain shown, from its start. These are yes or no findings as the source states them, for the method shown. In cells and extracts the contact can be indirect. Some binding calls cover weakened binding; strength is not graded here. For some assays here: Tags and fused reporters may be left off the sequences shown.

The target in assay [1] is T1, Flag-LMNB2 WT (lamin B2) (UniProt Q03252).
T1 sequence: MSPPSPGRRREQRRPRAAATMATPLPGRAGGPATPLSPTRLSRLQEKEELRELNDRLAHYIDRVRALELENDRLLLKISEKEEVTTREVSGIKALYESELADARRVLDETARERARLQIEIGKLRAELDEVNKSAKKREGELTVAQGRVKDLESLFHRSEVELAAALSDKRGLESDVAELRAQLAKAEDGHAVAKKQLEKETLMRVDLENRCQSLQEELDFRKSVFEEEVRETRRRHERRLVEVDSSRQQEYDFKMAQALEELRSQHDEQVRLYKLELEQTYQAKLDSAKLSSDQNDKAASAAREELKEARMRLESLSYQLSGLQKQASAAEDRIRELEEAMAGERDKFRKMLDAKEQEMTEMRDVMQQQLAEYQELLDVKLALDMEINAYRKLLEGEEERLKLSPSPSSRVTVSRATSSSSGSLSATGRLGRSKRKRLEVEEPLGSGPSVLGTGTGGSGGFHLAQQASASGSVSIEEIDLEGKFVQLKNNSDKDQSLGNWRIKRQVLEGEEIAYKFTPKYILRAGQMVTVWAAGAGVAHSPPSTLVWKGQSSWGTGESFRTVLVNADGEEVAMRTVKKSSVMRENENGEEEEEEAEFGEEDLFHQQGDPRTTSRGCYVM
In words: co-IP; 293T cells transfected with increased Myc SPOP in combination with indicated constructs; LMNB2-WDR26 co-precipitation read.

In assay [2] the target is T2, Flag-LMNB2 K484R (UniProt Q03252).
T2 sequence: T1 sequence with K484R
In words: co-IP; 293T cells transiently transfected with both tagged partners; IP buffer 50 mM Tris-HCl pH 7.4, 150 mM NaCl, 0.1% NP-40; HA/Flag/Myc agarose beads overnight at 4°C; also done in control and SPOP knockout cells.

The target in assay [3] is T1, Flag-LMNB2 WT (lamin B2). The assay is described as above.
The target in assay [4] is endogenous LMNB1 (lamin B1) (human (endogenous in HEK293T)) (UniProt P20700). Nature of the assay: co-IP; endogenous proteins in 293T cells, indicated antibodies on protein A/G beads; IP buffer 50 mM Tris-HCl pH 7.4, 150 mM NaCl, 0.1% NP-40, overnight at 4°C.
The target of assay [5] is endogenous lamin A/C (LMNA) (human (endogenous in HEK293T)) (UniProt P02545). The assay is described as above.
The target in assay [6] is T3, endogenous LMNB2 (lamin B2) (human (endogenous in HEK293T)) (UniProt Q03252).
T3 sequence: T1 sequence
The assay is described as above.

For assay [7], the target named is T2, Flag-LMNB2 K484R. Nature of the assay: co-IP; cells transfected with Flag-WT or mutated LMNB2; endogenous WDR26 detected.
Assay [8] concerns the target T1, Flag-LMNB2 WT (lamin B2). The description is as above.
The target in assay [9] is T4, LMNB2 with 418TSS420 mutated to 418TAA420 in SBC1 (UniProt Q03252).
T4 sequence: T1 sequence with S419A, S420A
In words: co-IP; 293T cells transiently transfected with both tagged partners; IP buffer 50 mM Tris-HCl pH 7.4, 150 mM NaCl, 0.1% NP-40; HA/Flag/Myc agarose beads overnight at 4°C; also done in control and SPOP knockout cells.

Assay [10] deals with Flag-LMNA (lamin A/C) (human) (UniProt P02545). The assay is described as above.
Assay [11] addresses Flag-LMNB1 (lamin B1) (human) (UniProt P20700). The description is as above.
For assay [12], the target named is T5, Flag-LMNB2 ΔSBC1 (UniProt Q03252).
T5 sequence: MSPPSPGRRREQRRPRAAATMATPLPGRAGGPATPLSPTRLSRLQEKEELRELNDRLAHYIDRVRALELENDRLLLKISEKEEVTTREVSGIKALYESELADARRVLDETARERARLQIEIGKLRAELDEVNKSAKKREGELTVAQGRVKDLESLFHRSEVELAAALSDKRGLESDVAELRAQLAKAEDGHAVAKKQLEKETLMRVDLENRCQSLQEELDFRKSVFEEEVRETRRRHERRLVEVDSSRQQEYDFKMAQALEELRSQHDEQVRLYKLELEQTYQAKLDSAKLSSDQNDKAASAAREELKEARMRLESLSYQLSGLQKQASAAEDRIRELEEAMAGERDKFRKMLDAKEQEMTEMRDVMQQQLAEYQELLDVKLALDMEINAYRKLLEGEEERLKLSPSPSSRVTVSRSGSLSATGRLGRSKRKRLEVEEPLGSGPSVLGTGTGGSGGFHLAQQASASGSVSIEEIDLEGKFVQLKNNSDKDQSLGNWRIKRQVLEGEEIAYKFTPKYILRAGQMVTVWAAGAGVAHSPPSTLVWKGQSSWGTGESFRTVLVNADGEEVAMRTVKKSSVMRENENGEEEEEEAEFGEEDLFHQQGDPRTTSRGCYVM
The assay is described as above.

The target in assay [13] is GST-SPOP purified from E. coli (UniProt O43791). Nature of the assay: pull-down; in vitro; GST-SPOP purified from E. coli with LMNB2.

Turning to “exogenous WDR26 (WD repeat domain 26), pCMV-WDR26-3×HA-Neo (from UniProt Q9H7D7 1-661)”, the binding entry in assay [1], in assay [2] and in assay [3] was “binds” each time.

Turning to “endogenous SPOP (from UniProt O43791 1-374)”, the binding entry in assay [4] is on record as “no binding”; in assay [5], “no binding”; in [6] it was “binds”.

On to “endogenous WDR26 (from UniProt Q9H7D7 1-661)”, for which the binding entry in assay [7] and in assay [8] was “binds” in each case.

For the molecule “Myc-SPOP WT (speckle-type POZ protein), ectopically expressed (from UniProt O43791 1-374)”, the binding result is listed as “no binding” in [9]; “no binding” in assay [10]; “no binding” in [11]; “binds” in assay [3]; “no binding” in assay [12].

B1: LMNB2 of the in vitro binding test with GST-SPOP (protein, UniProt Q03252 1-620)
chain: T1 sequence
Consider B1, for which, in assay [13], the binding entry is recorded as “binds”.
